The list shows a part of the results. Cut-off read from the data, not from the text of the source: active = 3.2 or more and inactive = the rest. Most of these values are background signal.
B1: IL23R_Y178_YF (peptide)
chain: FLTSSYINIST
B2: IL4R_Y497 (peptide)
chain: AGNPAYRSFSN
B3: IL4R_Y497_A492T (peptide)
chain: TGNPAYRSFSN
B4: IL4R_Y575 (peptide)
chain: APTSGYQEFVH
B5: IL4R_Y575_V579I (peptide)
chain: APTSGYQEFIH
B6: IL6ST_Y396 (peptide)
chain: LTNDRYLATLT
B7: INA_Y87_T92S (peptide)
chain: ARTNEYKIIRS
B8: INPPL1_Y661_P659S_YF (peptide)
chain: SFPSTYRFERG
B9: INPPL1_Y986 (peptide)
chain: FNNPAYYVLEG
B10: INPPL1_Y986_YF (peptide)
chain: FNNPAYFVLEG
B11: INPPL1_Y987_YF (peptide)
chain: NNPAFYVLEGV
B12: INS_Y108 (peptide)
chain: YQLENYCNGGG
B13: INS_Y108_Y103C (peptide)
chain: CQLENYCNGGG
B14: INSR_Y1011_V1012M (peptide)
chain: FPCSVYMPDEW
B15: INSR_Y1038 (peptide)
chain: SFGMVYEGNAR
B16: INSR_Y1038_G1035V (peptide)
chain: SFVMVYEGNAR
B17: INSR_Y1185_YF (peptide)
chain: MTRDIYETDFF
B18: INSR_Y1189 (peptide)
chain: IYETDYYRKGG
B19: INSR_Y1189_R1191Q (peptide)
chain: IYETDYYQKGG

Key:
Experiment in all cases: enrichment score (SH2-bound / input frequency) (ratio); bacterial display of known human phosphotyrosine sites (pTyr-Var adds point mutants) read by sequencing; higher = stronger binding; tyrosines were phosphorylated by kinases first
Details in all cases: peptide library: pTyr-Var
SHP2 C-SH2 domain E139D = molecular target: SHP2 C-SH2 domain E139D
[1] = molecular target: SHP2 C-SH2 domain wild-type
SHP2 N-SH2 domain L43F = molecular target: SHP2 N-SH2 domain L43F
SHP2 N-SH2 domain T42A = molecular target: SHP2 N-SH2 domain T42A
SHP2 N-SH2 domain T52S = molecular target: SHP2 N-SH2 domain T52S
[2] = molecular target: SHP2 N-SH2 domain wild-type
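Note: displayed peptides selected on beads carrying the immobilized SH2 domain, with library peptides lacking any tyrosine serving as negative controls.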

| Binder | enrichment score (SHP2 C-SH2 domain E139D) | enrichment score [1] | enrichment score (SHP2 N-SH2 domain L43F) | enrichment score (SHP2 N-SH2 domain T42A) | enrichment score (SHP2 N-SH2 domain T52S) | enrichment score [2] |
| --- | --- | --- | --- | --- | --- | --- |
| B1 | inactive: 1.99 | inactive: 2.64 | inactive: 2.57 | active: 8.83 | inactive: 2.97 | inactive: 1.69 |
| B2 | inactive: 0.613 | inactive: 0.635 | inactive: 0.502 | inactive: 0.553 | inactive: 0.611 | inactive: 0.527 |
| B3 | inactive: 0.492 | inactive: 0.443 | inactive: 0.466 | inactive: 0.474 | inactive: 0.592 | inactive: 0.831 |
| B4 | inactive: 0.661 | inactive: 0.514 | inactive: 0.545 | inactive: 0.55 | inactive: 0.539 | inactive: 0.82 |
| B5 | inactive: 0.952 | inactive: 0.561 | inactive: 0.886 | inactive: 0.794 | inactive: 0.669 | inactive: 1.04 |
| B6 | inactive: 0.858 | inactive: 0.853 | inactive: 0.824 | inactive: 0.736 | inactive: 0.871 | inactive: 0.776 |
| B7 | inactive: 0.621 | inactive: 0.617 | inactive: 0.427 | inactive: 0.73 | inactive: 0.592 | inactive: 0.515 |
| B8 | inactive: 0.817 | inactive: 0.803 | inactive: 1.02 | inactive: 0.815 | inactive: 0.977 | inactive: 1.06 |
| B9 | inactive: 0.889 | inactive: 0.864 | inactive: 1.09 | inactive: 0.825 | inactive: 0.79 | inactive: 0.876 |
| B10 | inactive: 0.985 | inactive: 1.11 | inactive: 1.27 | inactive: 0.99 | inactive: 0.964 | inactive: 0.96 |
| B11 | inactive: 0.966 | inactive: 0.955 | inactive: 0.98 | inactive: 0.886 | inactive: 1.11 | inactive: 1 |
| B12 | inactive: 0.664 | inactive: 0.578 | inactive: 0.772 | inactive: 0.578 | inactive: 0.387 | inactive: 0.488 |
| B13 | inactive: 2.55 | inactive: 2.42 | inactive: 2.78 | inactive: 1.79 | inactive: 2.48 | inactive: 2.37 |
| B14 | inactive: 1.32 | inactive: 0.915 | inactive: 0.994 | inactive: 0.865 | inactive: 0.89 | inactive: 0.925 |
| B15 | inactive: 0.571 | inactive: 0.653 | inactive: 0.718 | inactive: 0.643 | inactive: 0.831 | inactive: 0.816 |
| B16 | inactive: 1.35 | inactive: 0.917 | inactive: 1.22 | inactive: 1.04 | inactive: 1.47 | inactive: 0.866 |
| B17 | inactive: 1 | inactive: 1.06 | inactive: 1.02 | inactive: 0.734 | inactive: 0.873 | inactive: 1.09 |
| B18 | inactive: 0.6 | inactive: 0.551 | inactive: 0.531 | inactive: 0.675 | inactive: 0.661 | inactive: 0.497 |
| B19 | inactive: 1.06 | inactive: 0.84 | inactive: 0.924 | inactive: 0.979 | inactive: 0.922 | inactive: 0.933 |
